# Reference: the supplement of paper PMC11741623
# The list shows a part of the results. Interaction screen of human proteins with wild-type SARS-CoV-2 proteins by split-DHFR complementation in yeast, 1 µg/mL methotrexate. Value = fitness of the pair (three or more lineages) minus that of the viral protein without a human partner, on a scale set by negative (0) and fused positive (1) controls, mean of up to three cultures; higher = more likely to interact. Active = false discovery rate below 0.05 (one-sided t-test) in at least one culture. Nearly all pairs are not hits, and differences among them are mostly noise (correlation between cultures about 0.3); most hits were seen in one culture only. Human sequences are the Swiss-Prot entries looked up by gene name; the clone may be another isoform. NSP2 values were corrected by the authors for a growth advantage. Listed are human proteins with a hit and a random twelfth of the others.
# B1: SGMS2, Q8NHU3 (protein)
# chain: MDIIETAKLEEHLENQPSDPTNTYARPAEPVEEENKNGNGKPKSLSSGLRKGTKKYPDYIQIAMPTESRNKFPLEWWKTGIAFIYAVFNLVLTTVMITVVHERVPPKELSPPLPDKFFDYIDRVKWAFSVSEINGIILVGLWITQWLFLRYKSIVGRRFCFIIGTLYLYRCITMYVTTLPVPGMHFQCAPKLNGDSQAKVQRILRLISGGGLSITGSHILCGDFLFSGHTVTLTLTYLFIKEYSPRHFWWYHLICWLLSAAGIICILVAHEHYTIDVIIAYYITTRLFWWYHSMANEKNLKVSSQTNFLSRAWWFPIFYFFEKNVQGSIPCCFSWPLSWPPGCFKSSCKKYSRVQKIGEDNEKST
# B2: PRPH2, P23942 (protein)
# chain: MALLKVKFDQKKRVKLAQGLWLMNWFSVLAGIIIFSLGLFLKIELRKRSDVMNNSESHFVPNSLIGMGVLSCVFNSLAGKICYDALDPAKYARWKPWLKPYLAICVLFNIILFLVALCCFLLRGSLENTLGQGLKNGMKYYRDTDTPGRCFMKKTIDMLQIEFKCCGNNGFRDWFEIQWISNRYLDFSSKEVKDRIKSNVDGRYLVDGVPFSCCNPSSPRPCIQYQITNNSAHYSYDHQTEELNLWVRGCRAALLSYYSSLMNSMGVVTLLIWLFEVTITIGLRYLQTSLDGVSNPEESESESQGWLLERSVPETWKAFLESVKKLGKGNQVEAEGADAGQAPEAG
# B3: RAD51D, O75771 (protein)
# chain: MGVLRVGLCPGLTEEMIQLLRSHRIKTVVDLVSADLEEVAQKCGLSYKALVALRRVLLAQFSAFPVNGADLYEELKTSTAILSTGIGSLDKLLDAGLYTGEVTEIVGGPGSGKTQVCLCMAANVAHGLQQNVLYVDSNGGLTASRLLQLLQAKTQDEEEQAEALRRIQVVHAFDIFQMLDVLQELRGTVAQQVTGSSGTVKVVVVDSVTAVVSPLLGGQQREGLALMMQLARELKTLARDLGMAVVVTNHITRDRDSGRLKPALGRSWSFVPSTRILLDTIEGAGASGGRRMACLAKSSRQPTGFQEMVDIGTWGTSEQSATLQGDQT
# B4: SENP8, Q96LD8 (protein)
# chain: MDPVVLSYMDSLLRQSDVSLLDPPSWLNDHIIGFAFEYFANSQFHDCSDHVSFISPEVTQFIKCTSNPAEIAMFLEPLDLPNKRVVFLAINDNSNQAAGGTHWSLLVYLQDKNSFFHYDSHSRSNSVHAKQVAEKLEAFLGRKGDKLAFVEEKAPAQQNSYDCGMYVICNTEALCQNFFRQQTESLLQLLTPAYITKKRGEWKDLITTLAKK
# B5: SECISBP2, Q96T21 (protein)
# chain: MASEGPREPESEGIKLSADVKPFVPRFAGLNVAWLESSEACVFPSSAATYYPFVQEPPVTEQKIYTEDMAFGASTFPPQYLSSEITLHPYAYSPYTLDSTQNVYSVPGSQYLYNQPSCYRGFQTVKHRNENTCPLPQEMKALFKKKTYDEKKTYDQQKFDSERADGTISSEIKSARGSHHLSIYAENSLKSDGYHKRTDRKSRIIAKNVSTSKPEFEFTTLDFPELQGAENNMSEIQKQPKWGPVHSVSTDISLLREVVKPAAVLSKGEIVVKNNPNESVTANAATNSPSCTRELSWTPMGYVVRQTLSTELSAAPKNVTSMINLKTIASSADPKNVSIPSSEALSSDPSYNKEKHIIHPTQKSKASQGSDLEQNEASRKNKKKKEKSTSKYEVLTVQEPPRIEDAEEFPNLAVASERRDRIETPKFQSKQQPQDNFKNNVKKSQLPVQLDLGGMLTALEKKQHSQHAKQSSKPVVVSVGAVPVLSKECASGERGRRMSQMKTPHNPLDSSAPLMKKGKQREIPKAKKPTSLKKIILKERQERKQRLQENAVSPAFTSDDTQDGESGGDDQFPEQAELSGPEGMDELISTPSVEDKSEEPPGTELQRDTEASHLAPNHTTFPKIHSRRFRDYCSQMLSKEVDACVTDLLKELVRFQDRMYQKDPVKAKTKRRLVLGLREVLKHLKLKKLKCVIISPNCEKIQSKGGLDDTLHTIIDYACEQNIPFVFALNRKALGRSLNKAVPVSVVGIFSYDGAQDQFHKMVELTVAARQAYKTMLENVQQELVGEPRPQAPPSLPTQGPSCPAEDGPPALKEKEEPHYIEIWKKHLEAYSGCTLELEESLEASTSQMMNLNL
# B6: SPATA12, Q7Z6I5 (protein)
# chain: MSSSALTCGSTLEKSGDTWEMKALDSSRLVPWPPRGLGSSTQHPNKPHCALASCQGPGVLPGAASALPELTFQGDVCQSETCQRYLQAAISLDIAVSQINLLGRPSSPPALLIQQGSCEQVIHNSTPQFLGMEDGDNERTTGWLWRLCEDIDAEPSSTGCSRSNQLTFTEGCFVRSLSTVYSNTHIHTHL
# B7: SLC35D2, Q76EJ3 (protein)
# chain: MTAGGQAEAEGAGGEPGAARLPSRVARLLSALFYGTCSFLIVLVNKALLTTYGFPSPIFLGIGQMAATIMILYVSKLNKIIHFPDFDKKIPVKLFPLPLLYVGNHISGLSSTSKLSLPMFTVLRKFTIPLTLLLETIILGKQYSLNIILSVFAIILGAFIAAGSDLAFNLEGYIFVFLNDIFTAANGVYTKQKMDPKELGKYGVLFYNACFMIIPTLIISVSTGDLQQATEFNQWKNVVFILQFLLSCFLGFLLMYSTVLCSYYNSALTTAVVGAIKNVSVAYIGILIGGDYIFSLLNFVGLNICMAGGLRYSFLTLSSQLKPKPVGEENICLDLKS
# B8: PDAP1, Q13442 (protein)
# chain: MPKGGRKGGHKGRARQYTSPEEIDAQLQAEKQKAREEEEQKEGGDGAAGDPKKEKKSLDSDESEDEEDDYQQKRKGVEGLIDIENPNRVAQTTKKVTQLDLDGPKELSRREREEIEKQKAKERYMKMHLAGKTEQAKADLARLAIIRKQREEAARKKEEERKAKDDATLSGKRMQSLSLNK
# B9: N4BP2L1, Q5TBK1 (protein)
# chain: MEDSFLQSFGRLSLQPQQQQQRQRPPRPPPRGTPPRRHSFRKHLYLLRGLPGSGKTTLARQLQHDFPRALIFSTDDFFFREDGAYEFNPDFLEEAHEWNQKRARKAMRNGISPIIIDNTNLHAWEMKPYAVMALENNYEVIFREPDTRWKFNVQELARRNIHGVSREKIHRMKERYEHDVTFHSVLHAEKPSRMNRNQDRNNALPSNNARYWNSYTEFPNRRAHGGFTNESSYHRRGGCHHGY
# Experiments:
# Test in all cases: yeast fitness gain over the viral ORF with no human partner (scaled fitness); higher = more likely to interact
# [1] = biological target: SARS-CoV-2 M
# Description: (§1)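 Split mouse DHFR complementation in pooled diploid yeast: human ORFeome clones carry one fragment and viral ORFs the other; barcoded lineages compete in 1 µg/mL methotrexate and fitness is read by barcode sequencing in up to three cultures.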
# [2] = biological target: SARS-CoV-2 NSP1
# Description: as §1
# [3] = biological target: SARS-CoV-2 NSP10
# Description: as §1
# [4] = biological target: SARS-CoV-2 NSP12
# Description: as §1
# [5] = biological target: SARS-CoV-2 NSP13
# Description: as §1
# [6] = biological target: SARS-CoV-2 NSP15
# Description: as §1
# [7] = biological target: SARS-CoV-2 NSP16
# Description: as §1
# [8] = biological target: SARS-CoV-2 NSP2
# Description: as §1
# [9] = biological target: SARS-CoV-2 NSP5
# Description: as §1
# [10] = biological target: SARS-CoV-2 NSP6
# Description: as §1
# [11] = biological target: SARS-CoV-2 NSP8
# Description: as §1
# [12] = biological target: SARS-CoV-2 NSP9
# Description: as §1
# [13] = biological target: SARS-CoV-2 ORF10
# Description: as §1
# [14] = biological target: SARS-CoV-2 ORF3A
# Description: as §1
# [15] = biological target: SARS-CoV-2 ORF3B
# Description: as §1
# [16] = biological target: SARS-CoV-2 ORF6
# Description: as §1
# [17] = biological target: SARS-CoV-2 ORF7A
# Description: as §1
# [18] = biological target: SARS-CoV-2 ORF7B
# Description: as §1
# [19] = biological target: SARS-CoV-2 ORF8
# Description: as §1
# [20] = biological target: SARS-CoV-2 ORF9B
# Description: as §1
# [21] = biological target: SARS-CoV-2 S
# Description: as §1
# [22] = biological target: SARS-CoV-2 NSP7
# Description: as §1
# [23] = biological target: SARS-CoV-2 ORF9Bwu (the 73-codon ORF)
# Description: as §1
# [24] = biological target: SARS-CoV-2 NSP4
# Description: as §1
# [25] = biological target: SARS-CoV-2 NSP14
# Description: as §1
Binder,yeast fitness gain [1],yeast fitness gain [2],yeast fitness gain [3],yeast fitness gain [4],yeast fitness gain [5],yeast fitness gain [6],yeast fitness gain [7],yeast fitness gain [8],yeast fitness gain [9],yeast fitness gain [10],yeast fitness gain [11],yeast fitness gain [12],yeast fitness gain [13],yeast fitness gain [14],yeast fitness gain [15],yeast fitness gain [16],yeast fitness gain [17],yeast fitness gain [18],yeast fitness gain [19],yeast fitness gain [20],yeast fitness gain [21],yeast fitness gain [22],yeast fitness gain [23],yeast fitness gain [24],yeast fitness gain [25]
B1,inactive: -0.0778,inactive: -0.0835,inactive: -0.0111,inactive: -0.059,inactive: -0.104,inactive: -0.000301,inactive: -0.341,inactive: -0.0395,inactive: -0.16,inactive: -0.0892,inactive: 0.0271,inactive: -0.0548,inactive: -0.0171,inactive: 0.00584,inactive: -0.012,inactive: -0.0298,inactive: 0.0967,active: 0.644,inactive: -0.057,inactive: -0.00385,inactive: 0.000705,–,–,–,–
B2,inactive: -0.06,inactive: 0.0168,inactive: 0.105,inactive: 0.0412,inactive: -0.21,–,inactive: -0.000146,inactive: -0.139,inactive: -0.204,–,–,–,–,–,–,inactive: -0.0845,inactive: 0.0393,–,inactive: -0.021,inactive: 0.00937,inactive: -0.14,inactive: 0.114,inactive: -0.131,–,–
B3,inactive: -0.0685,–,–,–,–,inactive: -0.294,inactive: 0.17,–,–,inactive: -0.0055,–,inactive: 0.0873,–,–,–,–,–,–,–,–,–,inactive: -0.0238,inactive: 0.0552,–,–
B4,inactive: -0.124,–,–,inactive: -0.0249,inactive: -0.00241,–,–,inactive: -0.392,inactive: 0.00397,inactive: -0.136,–,–,inactive: -0.13,inactive: -0.102,inactive: -0.197,inactive: 0.0688,–,inactive: 0.0518,inactive: -0.0149,inactive: -0.0146,inactive: -0.365,inactive: -0.0304,–,–,–
B5,inactive: -0.176,inactive: 0.0826,inactive: -0.107,inactive: -0.00994,inactive: -0.0309,–,–,inactive: -0.154,inactive: -0.0299,–,–,–,inactive: 0.0228,–,inactive: -0.114,inactive: 0.0443,–,–,inactive: -0.0699,inactive: -0.122,inactive: 0.00997,–,–,–,–
B6,inactive: -0.0937,inactive: -0.164,inactive: -0.093,inactive: -0.0771,inactive: 0.0756,inactive: -0.278,inactive: 0.0308,inactive: -0.12,inactive: -0.0133,inactive: 0.0384,inactive: -0.0619,inactive: -0.0934,inactive: 0.0046,inactive: 0.00542,inactive: -0.00256,inactive: -0.144,inactive: 0.0402,inactive: -0.0449,inactive: 0.0157,inactive: 0.0106,inactive: -0.0147,inactive: 0.0433,inactive: -0.07,–,–
B7,inactive: -0.0307,inactive: -0.0523,inactive: 0.0513,inactive: -0.117,inactive: -0.0214,inactive: 0.0828,–,inactive: -0.108,inactive: -0.112,inactive: -0.0152,inactive: -0.0677,inactive: 0.0595,inactive: -0.0211,–,inactive: 0.00795,inactive: 0.0275,inactive: -0.136,inactive: -0.000854,inactive: 0.00859,inactive: 0.0221,inactive: 0.00385,inactive: 0.0821,–,inactive: -0.323,–
B8,inactive: -0.0322,inactive: 0.047,inactive: -0.0763,inactive: 0.0275,inactive: 0.0526,inactive: -0.0128,inactive: 0.0328,inactive: 0.109,inactive: 0.0292,inactive: 0.00348,inactive: -0.00918,inactive: -0.0079,inactive: 0.0594,–,inactive: -0.0159,inactive: -0.0222,inactive: -0.113,inactive: 0.0463,inactive: -0.017,inactive: -0.00168,inactive: -0.0666,inactive: 0.0309,inactive: 0.034,–,–
B9,inactive: -0.102,inactive: -0.00576,inactive: -0.0303,inactive: -0.199,inactive: -0.107,–,–,inactive: -0.21,inactive: -0.0284,inactive: -0.0653,inactive: -0.0854,inactive: 0.137,inactive: -0.0569,inactive: -0.0487,inactive: 0.0209,inactive: 0.019,inactive: 0.0621,inactive: -0.0221,inactive: 0.0105,inactive: -0.00482,inactive: -0.0741,inactive: -0.00722,inactive: -0.0446,–,inactive: 0.0234
